Among the data in paper PMC10726135 are binding signal (log2 normalized intensity) values, retold here.

The list shows a part of the results. At the low end of the ranking, values are background and their order means little. The protein was read in a cell extract, so binding may be indirect.

This assay deals with T1, HNF4alpha2 (COS-7 nuclear extract) (UniProt P41235).
T1 sequence: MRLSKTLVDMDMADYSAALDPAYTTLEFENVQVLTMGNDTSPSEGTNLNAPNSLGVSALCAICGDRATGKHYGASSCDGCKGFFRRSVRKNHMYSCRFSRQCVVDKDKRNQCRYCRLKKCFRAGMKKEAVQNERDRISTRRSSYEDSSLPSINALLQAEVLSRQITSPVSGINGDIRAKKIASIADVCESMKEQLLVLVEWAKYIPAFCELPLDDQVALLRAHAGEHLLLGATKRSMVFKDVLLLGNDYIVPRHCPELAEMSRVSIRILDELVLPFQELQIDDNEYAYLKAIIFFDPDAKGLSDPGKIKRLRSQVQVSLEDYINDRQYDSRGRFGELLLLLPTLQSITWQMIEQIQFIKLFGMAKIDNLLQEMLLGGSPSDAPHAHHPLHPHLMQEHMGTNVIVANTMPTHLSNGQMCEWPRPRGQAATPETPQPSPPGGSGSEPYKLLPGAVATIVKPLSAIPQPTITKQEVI
The assay can be described thus: protein-binding microarray. To be noted: COS-7 nuclear extract on double-stranded Agilent 4x180k PBM; binding buffer, salt, pH and temperature not given; high values mean tight binding; double strand, one strand shown; sequences stand for … in …GCCTAGGGAGATTAGAGTATCGGTCGA
For GCAAACACCTGGCCAGCGACTTTAGGGGCC, the binding signal (log2 normalized intensity) was -1.12.
Take GACGGCTAAGAGAAATCCACACAGCACTGA: the binding signal (log2 normalized intensity) is -1.21.
With AAGGTCAGTTTCTTTAAGACAAGTGTCCCT, the binding signal (log2 normalized intensity) came out at 1.58.
As for GATCCAACTCTGAAGATTCACAGGTGGGAT, the binding signal (log2 normalized intensity) was -1.13.
Take ACTCTCTCTCTGTGTCACATACACCTGCGT: the binding signal (log2 normalized intensity) was determined as 1.08.
Under TCCTGTCCACCCTGAAAGAGAGGAGGCTGA stands -1.14; under CTTACGGCCCTGTGGTGTTCGCTAAGATGT, 0.637; under AGCTGCCCTTTGCACATGCCCCTCCCAGGG, 2.6.
Take TGAAGTGAGTTGTTTGTTTTGAGATAGGGT: the binding signal (log2 normalized intensity) turned out to be 1.85.
For AAAAATCTCACTCACCCTAAGCCCTGCTCA the value was -0.982; for CCAAATTCTTTTTTTTTTTTTTTTTTTTTT, 3.38; for CAAGGTAAACATGATGAAAGCAATGTTTGA, 1.16.
In the case of CAGACGGATTCCACGGGGGTGCAGCCAAGT, the binding signal (log2 normalized intensity) is -1.21.
Turning to ATGCTGATGGGGACCACAGAGAACTAATCT, the binding signal (log2 normalized intensity) was -1.12.
Consider GGAAATCCCGAAATAGAGCCAAACATGATA, for which the binding signal (log2 normalized intensity) is -1.07.
Take CCCAGCCAGAATTCTCCCTGCAGTCCTCTG: the binding signal (log2 normalized intensity) is -1.11.
Regarding TGTACCCGTCCACCTTTGGATCCAGCTCCT, the binding signal (log2 normalized intensity) is 1.77.
As to ACCCTGACTCTGCAGCCGAACCGGCACGGT, the binding signal (log2 normalized intensity) is -1.14.
Regarding TTAATATATGAAGATGGGCATTAGGTGGAC, the binding signal (log2 normalized intensity) was determined as 0.991.
For CACAGTGGGGCAGATCACAAGCACCCCCCA, the binding signal (log2 normalized intensity) turned out to be 4.01.
For GCTTCCAGTTAAGCAGGTTCACATTTTTGT the value was 1.17; for AACAGGAATTCAAAGGTGCAAAGGTTAAAA, 5.35; for AACTTTGGACCACATATAGAGAAGCCAGGG, -1.17.
Turning to ACCAGGGGGCAGAGTGAGCAGCACTTTTGG, the binding signal (log2 normalized intensity) is -0.845.
Take CGGGAATCTGACCTTTGGGACATTCCCCAG: the binding signal (log2 normalized intensity) was found to be 4.61.
Regarding GGGGTCTGGTTTCTAGGTAGATAAGGGAGT, the binding signal (log2 normalized intensity) was found to be 1.29.
Under TGGATTACATACCCAAGTTCCCTCTCAGGA stands 0.505; under TAATTCTTCTTTGAAAGTTTGGTGGACTTT, 6.32; under TTGACTGAGGTGCAGGACAAAGTGTGCACT, 0.151.
For GAGGGTGGGTTCAAAGGTCAGAAAAAGCTG, the binding signal (log2 normalized intensity) was 6.66.
Consider GGGGGCGTTCCCCGAGCGAGCTCCGTGCGG, for which the binding signal (log2 normalized intensity) was -1.13.
Regarding TGGCATGTATAATGACACTAGCAGAAGAGA, the binding signal (log2 normalized intensity) was -1.08.
Regarding CAGAAGACCCTTGGCCTCTACAGCTACTCC, the binding signal (log2 normalized intensity) was -1.1.
Consider AAACAAGGCCAAAGTCTGGCAAATGAAATG, for which the binding signal (log2 normalized intensity) was -0.544.
For the sequence TCAGAGATCAAGATACAGGTCAGACCCTGG, the binding signal (log2 normalized intensity) was determined as 0.993.
For the sequence ATAGTTGACCCTTGAACAATGTGGGGGTCG, the binding signal (log2 normalized intensity) stood at 3.7.
On to GTAAGGCCCGTGAGATTGAAAGCTAAGGCA, for which the binding signal (log2 normalized intensity) was -1.16.
Consider TGAGGGAGGGAGGAGGGACTGAACAGATAT, for which the binding signal (log2 normalized intensity) was -1.12.
GGGCCATTCCTCTATCTCCCTGTGACCTCC: the binding signal (log2 normalized intensity) amounted to 3.72.
As to CCTGTTTGCTTCTGCCCCCTGGAGGAGCAA, the binding signal (log2 normalized intensity) was 2.67.
For the sequence CGGCATTCTCTGGTCTGCGGTTGTGTAGAC, the binding signal (log2 normalized intensity) is 1.57.
As to AAGATAATGACTAAGGCAGGGAAGGAGAGT, the binding signal (log2 normalized intensity) is -1.19.
Under CAGTCACAGCAGTGGACTTTGACCTTGGCA stands 10.2; under CACCCTGCTGTAAATAAAATGAGATTCCTT, -0.457.
Under GACCTTGGCACTGAAGAATGTCTAAATCTG stands 0.492.
In the case of TCTGAAGATAAATGCCTTAGCTGTGACCAT, the binding signal (log2 normalized intensity) is 0.619.
TAATCTGCTTCCAGTTCCATAATCCCCGAA: the binding signal (log2 normalized intensity) turned out to be 2.9.
As to AGGAAGTGTGCACAAGTCCTCACAATAATG, the binding signal (log2 normalized intensity) was -1.05.
Under GGCCCTCTAGTCTAGTCCAAACTGCAACCT stands 0.759.
On to GCAGGGGATGCCCTTTGACCTCTGCTTCCT, for which the binding signal (log2 normalized intensity) is 8.18.
For the sequence GCAGACTTGGATTTTCTCATCCCAGGGATA, the binding signal (log2 normalized intensity) is -0.778.
Consider ATGGGGACTTTGGACTCCTGTTTGAACAAA, for which the binding signal (log2 normalized intensity) came out at 4.84.
Under TGAGAGGAATGAGCAGGAACCTTGTGGTGG stands 0.29.
In the case of AAACCAAAGCTGGAGTGCAGTCCCCGGCTG, the binding signal (log2 normalized intensity) is -1.04.
In the case of ACAATGGCATTTCACAGAGCAAGGGTCCAG, the binding signal (log2 normalized intensity) came to 2.12.
As for TCCTGAGTCCACATGAGCCTCTTTATCTCT, the binding signal (log2 normalized intensity) was -1.1.
Consider GTTTCAGCCTTATTCTTTGATCTCTTATCA, for which the binding signal (log2 normalized intensity) turned out to be 1.32.
Turning to GGTTATTTCAATTACAAAGCAACACAATGC, the binding signal (log2 normalized intensity) was 0.64.
For TCGACTTCCTCTTCATATCAGTAAACCCCA the value was 4.64; for GTGTAAAACAGGTGAAAGATAAGGGCTAGT, -1.17; for ACAAGCCCGGCTTTGGGCTTGAGCAGCTGG, -1.18.
On to GGCAAGCAAGTGACATGTTGGTGGGGGTGG, for which the binding signal (log2 normalized intensity) worked out at 0.69.
Turning to GTCTGCCCAGAGCGGCAGCGCCTCCCGGTC, the binding signal (log2 normalized intensity) was -1.39.
Regarding TCCTGGCCTCCACTCCTCCTCCTTCCCTCC, the binding signal (log2 normalized intensity) worked out at 1.13.
As for GGAAACTGCTTTGGTTAATCATTAGAGATG, the binding signal (log2 normalized intensity) amounted to 0.742.
For TTTGCTCTGCTACTAACTGCATGACTTCAG the value was -1.01.
Consider CGCCGCCTCTGCCTCTTGACCCCTTGGCCC, for which the binding signal (log2 normalized intensity) was determined as 5.17.
For GGGTGAGGGTGAGGGTTAGGGGTTAGGGTT the value was 0.567.
Under TGCTAAGTGCCATGTAATCAAACTGAACTT stands 1.74.
Turning to CCACCTGCTGGTCAGGAGACTGCTCGGCAT, the binding signal (log2 normalized intensity) is -1.06.
For the sequence TACCAAGGCTCAGAGGTCAAGTCACTGCTC, the binding signal (log2 normalized intensity) was 2.57.
With TTCAAATGAGGGCAGGATGCATGCACTTCA, the binding signal (log2 normalized intensity) stood at 0.631.
